Consider 55 variants from the supplement of paper PMC11876631.

± gives the standard deviation of the averaged measurements. Laboratory Escherichia coli strains with one amino-acid change in an essential protein, pooled on minimal glucose agar with carbenicillin or gentamicin at twice the control MIC (plus kanamycin and chloramphenicol for the plasmids), 48 h. Fold change of barcode share against drug-free plates; higher = less susceptible. Active = above 20 in both replicates (the paper's putatively resistant). '<' = one read or none on drug, '>' = one read or none on a drug-free plate. Shares are relative, so most strains fall below 1 when a few take over. Listed are strains with at least 15 reads on both drug-free plates, and hits; most hits rest on fewer reference reads. Replicate rank correlation about 0.5. Edits are read from barcodes. Where only a bound is given, the exact number is not on record here.

B1: lpxH; numbered along this chain (parent)
chain: MATLFIADLHLCVEEPAITAGFLRFLAGEARKADALYILGDLFEAWIGDDDPNPLHRKMAAAIKAVSDSGVPCYFIHGNRDFLLGKRFARESGMTLLPEEKVLELYGRRVLIMHGDTLCTDDAGYQAFRAKVHKPWLQTLFLALPLFVRKRIAARMRANSKEANSSKSLAIMDVNQNAVVSAMEKHQVQWLIHGHTHRPAVHELIANQQPAFRVVLGAWHTEGSMVKVTADDVELIHFPF
B2: pheS; numbered along this chain (parent)
chain: MSHLAELVASAKAAISQASDVAALDNVRVEYLGKKGHLTLQMTTLRELPPEERPAAGAVINEAKEQVQQALNARKAELESAALNARLAAETIDVSLPGRRIENGGLHPVTRTIDRIESFFGELGFTVATGPEIEDDYHNFDALNIPGHHPARADHDTFWFDTTRLLRTQTSGVQIRTMKAQQPPIRIIAPGRVYRNDYDQTHTPMFHQMEGLIVDTNISFTNLKGTLHDFLRNFFEEDLQIRFRPSYFPFTEPSAEVDVMGKNGKWLEVLGCGMVHPNVLRNVGIDPEVYSGFAFGMGMERLTMLRYGVTDLRSFFENDLRFLKQFK
B3: argS; numbered along this chain (parent)
chain: MNIQALLSEKVRQAMIAAGAPADCEPQVRQSAKVQFGDYQANGMMAVAKKLGMAPRQLAEQVLTHLDLNGIASKVEIAGPGFINIFLDPAFLAEHVQQALASDRLGVATPEKQTIVVDYSAPNVAKEMHVGHLRSTIIGDAAVRTLEFLGHKVIRANHVGDWGTQFGMLIAWLEKQQQENAGEMELADLEGFYRDAKKHYDEDEEFAERARNYVVKLQSGDEYFREMWRKLVDITMTQNQITYDRLNVTLTRDDVMGESLYNPMLPGIVADLKAKGLAVESEGATVVFLDEFKNKEGEPMGVIIQKKDGGYLYTTTDIACAKYRYETLHADRVLYYIDSRQHQHLMQAWAIVRKAGYVPESVPLEHHMFGMMLGKDGKPFKTRAGGTVKLADLLDEALERARRLVAEKNPDMPADELEKLANAVGIGAVKYADLSKNRTTDYIFDWDNMLAFEGNTAPYMQYAYTRVLSVFRKAEIDEEQLAAAPVIIREDREAQLAARLLQFEETLTVVAREGTPHVMCAYLYDLAGLFSGFYEHCPILSAENEEVRNSRLKLAQLTAKTLKLGLDTLGIETVERM

One series covers variants of B1. Description: barcode share on antibiotic plates over drug-free plates; higher = less susceptible. The note with it: with Escherichia coli (laboratory strain); antibiotic: carbenicillin; 2× MIC (3.1 µg/mL). As for the experimental part:
(§1)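 A pool of E. coli strains, each edited to carry one amino-acid change in an essential protein, was grown for 48 h on minimal glucose agar with or without antibiotic; strain barcodes were sequenced; mean of two replicates.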
As to F75W, the “fold change of barcode share” value is 0.321 ± 0.17.
Same read-out and setting: as for L39D, the figure is 0.452 ± 0.3; as for L39A, 0.214 ± 0.081.
The same measure, in the same setting: with L39P the figure was 0.257 ± 0.0049; with L39Q, 0.217 ± 0.018.
Regarding L111P, the “fold change of barcode share” value amounted to 0.466 ± 0.037.
Still for that read-out and setting: with L111D the figure was 0.414 ± 0.044; with L111A, 0.679 ± 0.51.

Still in this series, the particulars now being: with Escherichia coli (laboratory strain); antibiotic: gentamicin; 2× MIC (MIC 0.45 µg/mL).
On to F75W, for which the “fold change of barcode share” value is 0.00517 ± 0.0045.
On the same count and under the same terms, as for L39D, the figure is < 0.00515.
The same measure, in the same setting: as for L39A, the figure is < 0.00521.
On the same count and under the same terms, as for L39P, the figure is 0.00708 ± 0.0018; as for L39Q, < 0.00465; as for L111P, 0.00858 ± 0.0012.
In the case of L111D, the “fold change of barcode share” value is 0.00977 ± 0.0005.
Same read-out and setting: as for L111A, the figure is 0.00675 ± 0.0068.

In another series the parent is B2. The description is as above. The settings on record: with Escherichia coli (laboratory strain); antibiotic: carbenicillin; 2× MIC (3.1 µg/mL). The procedure:
as §1
For the variant I116D, the “fold change of barcode share” value was 0.304 ± 0.068.
The same measure, in the same setting: with I116Q the figure was 0.38 ± 0.15.
The same measure, in the same setting: as for I116P, the figure is 0.23 ± 0.029; as for I116W, 0.305 ± 0.076.
On the same count and under the same terms, as for I116A, the figure is 0.344 ± 0.17; as for F119D, 0.386 ± 0.23.
As to F119P, the “fold change of barcode share” value is 0.33 ± 0.014.
Same read-out and setting: as for F119W, the figure is 0.392 ± 0.25; as for F119A, 0.271 ± 0.018.
On the same count and under the same terms, as for F119Q, the figure is 0.282 ± 0.12; as for I113A, 0.206 ± 0.028; as for I113Q, 0.282 ± 0.13.
Same read-out and setting: with I113W the figure was 0.212 ± 0.02.
For I113P, the “fold change of barcode share” value was found to be 0.239 ± 0.051.
On the same count and under the same terms, with I113D the figure was 0.3691 ± 0.0036; with L305P, 0.243 ± 0.021; with L305A, 0.157 ± 0.18.
Still for that read-out and setting: with L305W the figure was 0.246 ± 0.0057; with L305Q, 0.288 ± 0.3; with L305D, 0.253 ± 0.16.

The series is the same for the next values; noted with them: with Escherichia coli (laboratory strain); antibiotic: gentamicin; 2× MIC (MIC 0.45 µg/mL).
For I116D, the “fold change of barcode share” value was < 0.0102.
The same measure, in the same setting: with I116Q the figure was < 0.00512; with I116P, 0.00746 ± 0.0062.
On the same count and under the same terms, as for I116W, the figure is < 0.00988; as for I116A, < 0.00719.
The same measure, in the same setting: with F119D the figure was 0.0101 ± 0.0029; with F119P, < 0.00891; with F119A, < 0.00833.
For the variant F119Q, the “fold change of barcode share” value is < 0.0112.
With I113A, the “fold change of barcode share” value is 0.00513 ± 0.0019.
Still for that read-out and setting: as for I113Q, the figure is 0.0088 ± 0.0053.
On to I113W, for which the “fold change of barcode share” value is 0.00487 ± 0.0022.
The same measure, in the same setting: with I113P the figure was 0.00678 ± 0.00027; with I113D, 0.00529 ± 0.0032; with L305P, < 0.01.
In the case of L305A, the “fold change of barcode share” value was < 0.0153.
Regarding L305W, the “fold change of barcode share” value was < 0.00625.
On the same count and under the same terms, with L305Q the figure was < 0.0147; with L305D, 0.0181 ± 0.013.

In another series the parent is B3. The description is as above. The settings on record: with Escherichia coli (laboratory strain); antibiotic: gentamicin; 2× MIC (MIC 0.45 µg/mL). The procedure:
as §1
As to V287Q, the “fold change of barcode share” value is < 0.0108.
On the same count and under the same terms, with V287A the figure was < 0.0167; with V287W, < 0.0177; with F533A, 0.0133 ± 0.0057.
Still for that read-out and setting: with F533W the figure was 0.0322 ± 0.027; with V117A, 0.00942 ± 0.011; with L334Q, 0.00361 ± 0.00037.
Still for that read-out and setting: as for L334P, the figure is 0.218 ± 0.29.
Take L334A: the “fold change of barcode share” value is < 0.00246.
On the same count and under the same terms, with L334D the figure was 0.0134 ± 0.015; with L334W, < 0.00347.
On the same count and under the same terms, as for M519W, the figure is < 0.0123.
Same read-out and setting: as for V116P, the figure is < 0.00635.
Consider V116A, for which the “fold change of barcode share” value was < 0.00297.
Turning to V116Q, the “fold change of barcode share” value amounted to 0.0127 ± 0.0054.
Same read-out and setting: with V116W the figure was < 0.00347.
F530A: the “fold change of barcode share” value is < 0.0119.
The same measure, in the same setting: with F530W the figure was < 0.00466.
Still for that read-out and setting: as for I85A, the figure is < 0.00663; as for I85W, < 0.0058; as for I85Q, 0.0156 ± 0.0054.
For the variant I83W, the “fold change of barcode share” value was < 0.00618.
The same measure, in the same setting: with I83Q the figure was < 0.00886; with I83A, < 0.00922.
In the case of I83P, the “fold change of barcode share” value was < 0.00717.

The same series, now with this note: with Escherichia coli (laboratory strain); antibiotic: carbenicillin; 2× MIC (3.1 µg/mL).
With V287A, the “fold change of barcode share” value is 0.366 ± 0.038.
Still for that read-out and setting: as for F533A, the figure is 0.265 ± 0.014.
On to F533W, for which the “fold change of barcode share” value turned out to be 0.212 ± 0.15.
Same read-out and setting: as for V117Q, the figure is 0.304 ± 0.011; as for V117A, 0.35 ± 0.13.
Still for that read-out and setting: with L334Q the figure was 0.298 ± 0.0073; with L334P, 0.332 ± 0.037; with L334A, 0.222 ± 0.059.
Same read-out and setting: with L334D the figure was 0.358 ± 0.15; with L334W, 0.253 ± 0.038; with M519W, 0.459 ± 0.27.
For V116D, the “fold change of barcode share” value is > 34.6 [active].
Still for that read-out and setting: as for V116P, the figure is 0.455 ± 0.0059; as for V116A, 0.213 ± 0.032.
On the same count and under the same terms, as for V116Q, the figure is 0.247 ± 0.051.
Take V116W: the “fold change of barcode share” value worked out at 0.545 ± 0.33.
Still for that read-out and setting: with F530A the figure was 0.182 ± 0.14; with F530W, 0.233 ± 0.11.
Still for that read-out and setting: as for I85A, the figure is 0.265 ± 0.0084; as for I85W, 0.231 ± 0.022; as for I85Q, 0.271 ± 0.11.
Still for that read-out and setting: with I83W the figure was 0.211 ± 0.034.
As for I83Q, the “fold change of barcode share” value is 0.182 ± 0.0028.
The same measure, in the same setting: with I83A the figure was 0.395 ± 0.17; with I83P, 0.422 ± 0.011.
